Common to all, as to experiment: Primary Screen for Target Class Profiling of Small Molecule Inhibitors of Methyltransferases
Test [1] deals with Glycine N-methyltransferase (Homo sapiens) (UniProt Q14749). Conditions: purified enzyme, MTase-Glo SAH luminescence; measured here: GNMT inhibition; at 40 µM; stronger effect = lower value. An outline of the steps: (§1)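 Each enzyme was assayed with SAM and its substrate. SAH formation detected by MTase-Glo luminescence; single-point 40 uM screen[…].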
The target of test [2] is Guanidinoacetate N-methyltransferase (Homo sapiens) (UniProt Q14353). As to conditions: purified enzyme, MTase-Glo SAH luminescence; measured here: GAMT inhibition; at 40 µM; stronger effect = lower value. An outline of the steps: as §1
The target of test [3] is Histamine N-methyltransferase (Homo sapiens) (UniProt P50135). As to conditions: purified enzyme, MTase-Glo SAH luminescence; measured here: HNMT inhibition; at 40 µM; stronger effect = lower value. An outline of the steps: as §1
Test [4] has as its target Nicotinamide N-methyltransferase (Homo sapiens) (UniProt P40261). Conditions: purified enzyme, MTase-Glo SAH luminescence; measured here: NNMT inhibition; at 40 µM; stronger effect = lower value. An outline of the steps:
as §1

In test [5] the target is Phenylethanolamine N-methyltransferase (Homo sapiens) (UniProt P11086). As to conditions: purified enzyme, MTase-Glo SAH luminescence; measured here: PNMT inhibition; at 40 µM; stronger effect = lower value. An outline of the steps: as §1

Several values for one entry are separate records, joined by “and”; a condition that tells them apart may be missing. Equal entries are not always repeated. Some of the results follow. Further columns of the screen follow, without active or inactive calls.
% is set by controls: 0 for no effect and ±100 for the full control effect.

As for `O=C(c1ccc(Br)cc1)N1CCN(c2cc(-c3ccccc3)[nH]n2)CC1`, the activity change, negative = inhibition in test [1] was -17.6%; in test [2], -12%; in test [3] it was -8.13%; in test [4], -18.3%; in test [5], -19.4%.
As for `CCCN1C(=O)c2c(C(=O)NCc3ccc(SC)cc3)ncn2CC1(C)C(=O)NCCC(C)C` (stereo unspecified), the activity change, negative = inhibition in test [1] was -1.31%; in test [2], 4.4%; in test [3], -3.03%; in test [4], -4.28%; in test [5] it was 1.23%.
Consider `Cc1ccc(C(=O)Cn2nc3n(CC(C)C)c(=O)c4ccccc4n3c2=O)c(C)c1`, for which the activity change, negative = inhibition in test [1] is 2.45%; in test [2], 1.06%; in test [3] it was 7.85%; in test [4], -2.03%; in test [5], 3.55%.
In the case of `CC(=O)C1=CCC2C3CC=C4CC(O)CC(O)C4(C)C3C(O)CC12C` (stereo unspecified), the activity change, negative = inhibition in test [1] was -4.32%; in test [2], 2.88%; in test [3], -5.37%; in test [4], -9.92%; in test [5] it was -0.383%.
Regarding `COC(=O)C1=COC(OC2OC(CO)C(O)C(O)C2O)C2C1C=CC2(O)CO` (stereo unspecified), the activity change, negative = inhibition in test [1] was 2.06%; in test [2], 2.01%; in test [3], 7.68%; in test [4], -9.61%; in test [5], 5.24%.
Take `CC(C)NC(=O)c1ccc2c(=O)n(C3CC3)c3nn(CC(=O)Nc4ccc(Cl)cc4)c(=O)n3c2c1`: the activity change, negative = inhibition in test [1] is 3.59%; in test [2] it was 6.55%; in test [3], 10.3%; in test [4], -3.98%; in test [5], 4.01%.
As to `COc1ccc(CNC(=O)Cn2c(=O)oc3cc(S(=O)(=O)N4CCCC4)ccc32)cc1`, the activity change, negative = inhibition in test [1] is -1.82%; in test [2], 0%; in test [3], 0.926%; in test [4], -2.86%; in test [5], -8.77%.
For the compound `C[C@H](O)[C@H](O)/C=C/c1cccc(O)c1CO`, the activity change, negative = inhibition was 0.271% in test [1]; 1.76% in test [2]; 6.73% in test [3]; -10.5% in test [4]; -3.8% in test [5].
For `COc1c2c(nc3occc13)C(CC=C(C)C)(OC)C(O)CC2` (stereo unspecified), the activity change, negative = inhibition in test [1] was 0%; in test [2] it was -10.8%; in test [3], 3.64%; in test [4], -22.7%; in test [5], -9.12%.
Taken in the same sequence, the figures for `COCCc1noc(-c2ccc(Cn3nc(C)cc3C)cc2)n1` were -1.85%, -4.27%, -0.444%, -6.01% and 0.439%.
For `CN1C[C@@H](NC(=O)c2ccc(C#N)cc2)C[C@H]1c1nc(Cc2ccccc2)no1`, the activity change, negative = inhibition in test [1] is -7.75%; in test [2] it was -6.13%; in test [3] it was -3.12%; in test [4], -9.16%; in test [5], 7.17%.
As to `C[C@]1(OC(=O)/C=C\c2ccc(O)cc2)C[C@@H](O)[C@]2(O)C=CO[C@@H](O[C@@H]3O[C@H](CO)[C@@H](O)[C@H](O)[C@H]3O)C12` (stereo partly specified), the activity change, negative = inhibition is -2.12% in test [1]; -0.48% in test [2]; 10.7% in test [3]; -11.7% in test [4]; -8.03% in test [5].
Taken in the same sequence, the figures for `CCOC(=O)c1cc2n(n1)CC(C)(C(=O)NCCC(C)C)N(Cc1cccc(F)c1)C2=O` (stereo unspecified) were -7.18%, 1.5%, -7.47%, -3.17% and -7.57%.
On to `CCCCNc1cc(C(=O)O)cc(S(N)(=O)=O)c1Oc1ccccc1`, for which the activity change, negative = inhibition was 2.78% in test [1]; 8.34% in test [2]; 12.3% in test [3]; -9.4% in test [4]; -1.67% in test [5].
Take `Fc1ccc2[nH]c(CN3CCN(c4ccccn4)CC3)cc2c1`: the activity change, negative = inhibition in test [1] was -8.27% and -4.89%; in test [2], 1.18% and -9.73%; in test [3], -0.653% and -3.67%; in test [4] it was -11.3% and -22.9%; in test [5] it was 2.46% and -13.7%.
Regarding `O=C(NC1CCC1)c1ccc(C#Cc2cccc(F)c2)nc1`, the activity change, negative = inhibition in test [1] was -4.25%; in test [2], -6.77%; in test [3], 4.78%; in test [4], -15.3%; in test [5], -11.8%.
Regarding `CCCn1c(=O)c2cc(Cl)ccc2n2c(=O)n(CC(=O)Nc3ccc4c(c3)OCO4)nc12`, the activity change, negative = inhibition was -0.502% in test [1]; 2.58% in test [2]; 4.14% in test [3]; 0.201% in test [4]; -1.08% in test [5].
As to `COc1cccc(CN2C(=O)c3ccc(-c4ccccc4)n3CC2(C)C(=O)NC2CCCC2)c1` (stereo unspecified), the activity change, negative = inhibition is 4.95% in test [1]; 5.92% in test [2]; 7.36% in test [3]; 0.129% in test [4]; 4.18% in test [5].
On to `COC(=O)Cc1c(-c2ccccc2)c2cc(C)ccc2[nH]c1=O`, for which the activity change, negative = inhibition in test [1] is -9.67%; in test [2], 0%; in test [3], 7.86%; in test [4], 0.736%; in test [5] it was 0.879%.
Take `CCOc1ccc(N2C(=O)c3cc4occc4n3CC2(C)C(=O)NC2CCCCCCC2)cc1` (stereo unspecified): the activity change, negative = inhibition in test [1] is -2.34%; in test [2] it was 4.89%; in test [3] it was 3.57%; in test [4], 4.92%; in test [5], -2.55%.
For `CC1(C(=O)NCc2ccccc2)Cn2nc(-c3ccccc3)cc2C(=O)N1Cc1ccccc1Br` (stereo unspecified), the activity change, negative = inhibition in test [1] was 1.86%; in test [2], 5.06%; in test [3] it was 0.795%; in test [4] it was -0.77%; in test [5], -15.3%.
As for `CCCCCCCCCC[Si](C)(C)CCC(=O)NC(Cc1ccc(C)cc1)c1ccccc1` (stereo unspecified), the activity change, negative = inhibition is -3.23% in test [1]; 8.24% in test [2]; 1.84% in test [3]; -2.28% in test [4]; 10.8% in test [5].
Turning to `O=c1[nH]c2ccc(C#CCN3CCC(Cc4ccccc4)CC3)cc2[nH]1`, the activity change, negative = inhibition in test [1] was -11%; in test [2], -0.278%; in test [3], -38%; in test [4], -30.7%; in test [5] it was -6.67%.
In the case of `C/C=C(\C)C(=O)O`, the values for the activity change, negative = inhibition in test [2], in test [4] and in test [5] were -6.43%, -7.32% and 5.8%, respectively.
As for `Cc1cc(-c2cnc(N)c3c(-c4ccc5scnc5c4)csc23)n(C)n1`, the activity change, negative = inhibition in test [1] was -14%; in test [2], -3.93%; in test [3], -7.84%; in test [4], -30.4%; in test [5], -13.4%.
For `CN1CCC(Nc2ncc3ncnc(Nc4ccc(F)c(Cl)c4)c3n2)CC1`, the activity change, negative = inhibition was -28.7% in test [2], -38.8% in test [4] and -19.7% in test [5].
For `C=C[C@@](C)(O)CC/C=C(\C)C(=O)O[C@@H]1[C@@H]2O[C@]2(C)[C@H]2[C@H](O[C@@H]3O[C@H](CO)[C@@H](O)[C@H](O)[C@H]3O)OC=C[C@@]12O`, the activity change, negative = inhibition in test [1] was 0.643%; in test [2] it was 1.71%; in test [3], 8.55%; in test [4], -8.85%; in test [5], -1.01%.
Consider `CC1(C(=O)Nc2ccccc2)CCc2cnc(N3CCOCC3)nc21` (stereo unspecified), for which the activity change, negative = inhibition was -9.99% in test [1]; -10.8% in test [2]; -6.45% in test [3]; -25.5% in test [4]; -13% in test [5].
In the case of `C=Cc1ccc(Cn2nc3n(Cc4ccc(C)cc4)c(=O)c4ccc(C(=O)NC(C)C)cc4n3c2=O)cc1`, the activity change, negative = inhibition in test [1] is 5.24%; in test [2] it was 4.71%; in test [3], 11.1%; in test [4] it was 2.44%; in test [5], 5.91%.
Consider `O=C(C1CCCCC1)N1CCC(n2cc(-c3nc(-c4ccccc4)no3)nn2)CC1`, for which the activity change, negative = inhibition in test [1] is -6.61%; in test [2], -10.5%; in test [3], -3.4%; in test [4], -12.6%; in test [5], -11.3%.
As to `CC(C)CCn1c(=O)c2ccccc2n2c(CCC(=O)NC(C)c3ccccc3)nnc12` (stereo unspecified), the activity change, negative = inhibition in test [1] was -11%; in test [2] it was 0%; in test [3], 1.29%; in test [4], -13.5%; in test [5] it was 1.77%.
Take `COc1ccc(OC)c(CCN2C(=O)c3cc4oc(C)cc4n3CC2(C)C(=O)NC2CCCCC2)c1` (stereo unspecified): the activity change, negative = inhibition in test [1] is -0.836%; in test [2], 3.41%; in test [3], 0.644%; in test [4] it was -0.608%; in test [5] it was -3.07%.
Take `CCC#CCN1CCc2ccccc2N(CC(O)COCc2ccco2)CCC1=O` (stereo unspecified): the activity change, negative = inhibition in test [1] is -2.63%; in test [2], 0.21%; in test [3] it was 3.1%; in test [4], -4.72%; in test [5], 1.32%.
As to `O=C(Cn1nc(-c2ccccc2)c2ccccc21)N1CCN(c2ccc(F)cc2)CC1`, the activity change, negative = inhibition in test [1] was -1.44%; in test [2] it was 1.51%; in test [3], 8.12%; in test [4] it was 1.54%; in test [5] it was 2.86%.
On the same counts, the results for `COc1ccc(OC)c(CNC(=O)c2cc3n(n2)CC(C)(C(=O)NCCC(C)C)N(C)C3=O)c1` (stereo unspecified) are 10.1%, 1.04%, 8.45%, 8.81% and 4.96%.
Take `CCNC(=O)CC1COCCN1C(=O)c1csc(-c2cccs2)n1` (stereo unspecified): the activity change, negative = inhibition in test [1] was -2.14%; in test [2] it was -3.31%; in test [3], 2.04%; in test [4], -1.52%; in test [5], 0.455%.
Regarding `O=C(CCc1nnc2n(Cc3ccc(F)cc3)c(=O)c3ccccc3n12)NCc1ccc(F)cc1`, the activity change, negative = inhibition was -4.83% in test [1]; 1.03% in test [2]; 9.88% in test [3]; 17.4% in test [4]; 3.4% in test [5].
For `CCCn1c(=O)c2ccc(C(=O)NCC(C)C)cc2n2c(=O)n(Cc3cccc(OC)c3)nc12`, the activity change, negative = inhibition in test [1] amounted to 4.6%; in test [2] it was 1.85%; in test [3], 7.48%; in test [4] it was 0.845%; in test [5] it was 1.07%.
Turning to `Cc1cccc2c1cnn2C(=O)CCC(=O)N1CCN(c2ccccn2)CC1`, the activity change, negative = inhibition in test [1] was -7.34%; in test [2], 0%; in test [3], 9.06%; in test [4], 7.81%; in test [5], 2.25%.

The record behind these values is PubChem BioAssay AID1745853 (National Center for Advancing Translational Sciences (NCATS), 2022).
